± gives the standard error. This sample is rich in variants without activity.
B1: glmS ribozyme (parent)
chain: AUAAAAGCGCCAGAACUACAGAAAUGUAGUUGACGAGGAGGAGGUUUAUCGAAUUUUCGGCGGAUGCCUCCAAA

Tests used:
Settings in all cases: with glucosamine-6-phosphate
glucosamine-6-phosphate [1] = variants of: B1; test: self-cleavage kobs at 40 uM GlcN6P; higher = faster cleavage; RNA array
How it was run: (§1)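 kobs was derived by fitting per-tile medians to one- or two-exponential decays after normalising signals to baseline and to non-cleaving reference variants. Those signals came from barcoded ribozyme variants transcribed in situ by E. coli RNA polymerase on sequenced MiSeq chips, followed through a hybridised Cy3 probe at 37 °C and imaged over ~14 h. Glucosamine-6-phosphate (40 μM to 10 mM) in HEPES/KCl/Mg(OAc)2 buffer was flowed in. Weighted Michaelis–Menten fits across concentrations then gave kcat and KM.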

glucosamine-6-phosphate [2] = variants of: B1; test: self-cleavage kobs at 160 uM GlcN6P; higher = faster cleavage; RNA array
How it was run: as §1

glucosamine-6-phosphate [3] = variants of: B1; test: self-cleavage kobs at 10000 uM GlcN6P; higher = faster cleavage; RNA array
How it was run: as §1

glucosamine-6-phosphate [4] = variants of: B1; test: self-cleavage kobs at 640 uM GlcN6P; higher = faster cleavage; RNA array
How it was run: as §1

glucosamine-6-phosphate [5] = variants of: B1; test: self-cleavage kobs at 2500 uM GlcN6P; higher = faster cleavage; RNA array
How it was run: as §1

Variant | self-cleavage kobs at 40 uM GlcN6P (glucosamine-6-phosphate [1]) [s⁻¹] | self-cleavage kobs at 160 uM GlcN6P (glucosamine-6-phosphate [2]) [s⁻¹] | self-cleavage kobs at 10000 uM GlcN6P (glucosamine-6-phosphate [3]) [s⁻¹] | self-cleavage kobs at 640 uM GlcN6P (glucosamine-6-phosphate [4]) [s⁻¹] | self-cleavage kobs at 2500 uM GlcN6P (glucosamine-6-phosphate [5]) [s⁻¹]
G7C U49G | < 1e-05 | < 1e-05 |  |  | 
A6U G38U C71A | < 1e-05 |  |  |  | 
G7U A39U G41U | < 1e-05 |  | < 1e-05 |  | 
G7U G66A C70U | < 1e-05 |  | < 1e-05 |  | 
G7A C11A U47G | < 1e-05 |  | < 1e-05 |  | 
G7C G51C | < 1e-05 |  | < 1e-05 | < 1e-05 | 
G7C C8U C34A | < 1e-05 |  |  |  | 
C8A C10U A15G C61G | < 1e-05 |  |  |  | 
C8A C34U | < 1e-05 | < 1e-05 | < 1e-05 | < 1e-05 | < 1e-05
C8A A52U | < 1e-05 | < 1e-05 | < 1e-05 | < 1e-05 | < 1e-05
C8A C34G A64U | < 1e-05 |  | < 1e-05 |  | 
G7U G41A | < 1e-05 | < 1e-05 | < 1e-05 | < 1e-05 | < 1e-05
G7U G29A | < 1e-05 | < 1e-05 | < 1e-05 | < 1e-05 | < 1e-05
G7C G9U A33G U47G A52C G63U | < 1e-05 |  |  |  | 
G7U G66U | < 1e-05 |  | < 1e-05 | < 1e-05 | < 1e-05
G7U U30C | < 1e-05 |  | < 1e-05 |  | < 1e-05
G7U G41C G51C A64U | < 1e-05 |  | < 1e-05 |  | 
G7A C10G A64U U65C | < 1e-05 |  |  |  | < 1e-05
G7C U69G | < 1e-05 |  |  |  | < 1e-05
G7A G41C C58A | < 1e-05 |  | < 1e-05 |  | 
C8A A14G U57C | < 1e-05 |  |  | < 1e-05 | < 1e-05
C8A G9A G37C A42C A53G | < 1e-05 |  | < 1e-05 |  | < 1e-05
G7U A14U U45G C70A | < 1e-05 |  | < 1e-05 |  | 
G7A C10A | < 1e-05 | < 1e-05 | < 1e-05 |  | < 1e-05

Variant | self-cleavage kobs at 40 uM GlcN6P (glucosamine-6-phosphate [1]) [s⁻¹] | self-cleavage kobs at 160 uM GlcN6P (glucosamine-6-phosphate [2]) [s⁻¹] | self-cleavage kobs at 10000 uM GlcN6P (glucosamine-6-phosphate [3]) [s⁻¹] | self-cleavage kobs at 640 uM GlcN6P (glucosamine-6-phosphate [4]) [s⁻¹] | self-cleavage kobs at 2500 uM GlcN6P (glucosamine-6-phosphate [5]) [s⁻¹]
G7C G9C U31C G40A | < 1e-05 |  | < 1e-05 |  | 
G7A A12C G13U C58U C71U | < 1e-05 |  |  |  | 
G7C G63U | < 1e-05 | < 1e-05 | < 1e-05 | < 1e-05 | < 1e-05
G7C G9U C50U | < 1e-05 |  | < 1e-05 |  | 
G7A G37C A42U | < 1e-05 |  | < 1e-05 | < 1e-05 | < 1e-05
G7U G29A A48G | < 1e-05 |  | < 1e-05 |  | 
G7U C10G A12U U65G C68G | 7.58e-05 ± 2.2e-05 |  | 5.57e-05 ± 1.5e-05 |  | 
A6U U57A G59A G60A | < 1e-05 |  |  |  | 
G7U U31C G38C G51A C70U | < 1e-05 |  |  |  | 
G7U A53U | < 1e-05 | < 1e-05 | < 1e-05 | < 1e-05 | < 1e-05
G7A G9U A48G | < 1e-05 |  |  |  | 
G7C G41U | < 1e-05 | < 1e-05 | < 1e-05 |  | < 1e-05
G7A U30G G41C C58G G66A | < 1e-05 |  |  |  | 
G7A G9A A48G U49A A52C | < 1e-05 |  |  | < 1e-05 | < 1e-05
G7A A48U U49G | < 1e-05 |  | < 1e-05 |  | 
A6U G38A | < 1e-05 |  |  |  | 
C8A G35C A52G | < 1e-05 | < 1e-05 | < 1e-05 | < 1e-05 | < 1e-05
G7U G51A | < 1e-05 | < 1e-05 | < 1e-05 |  | < 1e-05
C8A C61U | < 1e-05 |  | < 1e-05 | < 1e-05 | 
C8A C61G | < 1e-05 | < 1e-05 | < 1e-05 | < 1e-05 | < 1e-05
C8A A42C | < 1e-05 | < 1e-05 |  | < 1e-05 | 
G7C C67G | < 1e-05 | < 1e-05 | < 1e-05 | < 1e-05 | < 1e-05
A6U G44A C70U | < 1e-05 |  |  |  | 
G7C G37U C67G | < 1e-05 |  |  |  | 

— the supplement of paper PMC7125110
